Hit rate of the full screen: of about 220,000 compounds, about 5,700 (2.6%) were called active. Inconclusive means that the source gave no clear call. Such entries were picked first, then a sample of the others. Calls come from the whole dose curve; as a rule, active = well fitted inhibition curve with a large enough effect; inconclusive = small, poorly fitted or top-dose-only effect; inactive = no such curve, though single readings can be large or run the other way. Where the call is inconclusive, the potency comes from a doubtful curve fit.
The compounds below were run against Lysine-specific demethylase 5B (Homo sapiens) (UniProt Q9UGL1) (assay: Primary screen for KDM5B Histone Demethylases FDH-coupled qHTS). Settings: FDH-coupled NADH fluorescence (FDH is formaldehyde dehydrogenase); activity change, negative = inhibition: at 57.7 µM (top of the series) unless noted.
Sequence of UniProt Q9UGL1 (Q9UGL1 whole entry, looked up): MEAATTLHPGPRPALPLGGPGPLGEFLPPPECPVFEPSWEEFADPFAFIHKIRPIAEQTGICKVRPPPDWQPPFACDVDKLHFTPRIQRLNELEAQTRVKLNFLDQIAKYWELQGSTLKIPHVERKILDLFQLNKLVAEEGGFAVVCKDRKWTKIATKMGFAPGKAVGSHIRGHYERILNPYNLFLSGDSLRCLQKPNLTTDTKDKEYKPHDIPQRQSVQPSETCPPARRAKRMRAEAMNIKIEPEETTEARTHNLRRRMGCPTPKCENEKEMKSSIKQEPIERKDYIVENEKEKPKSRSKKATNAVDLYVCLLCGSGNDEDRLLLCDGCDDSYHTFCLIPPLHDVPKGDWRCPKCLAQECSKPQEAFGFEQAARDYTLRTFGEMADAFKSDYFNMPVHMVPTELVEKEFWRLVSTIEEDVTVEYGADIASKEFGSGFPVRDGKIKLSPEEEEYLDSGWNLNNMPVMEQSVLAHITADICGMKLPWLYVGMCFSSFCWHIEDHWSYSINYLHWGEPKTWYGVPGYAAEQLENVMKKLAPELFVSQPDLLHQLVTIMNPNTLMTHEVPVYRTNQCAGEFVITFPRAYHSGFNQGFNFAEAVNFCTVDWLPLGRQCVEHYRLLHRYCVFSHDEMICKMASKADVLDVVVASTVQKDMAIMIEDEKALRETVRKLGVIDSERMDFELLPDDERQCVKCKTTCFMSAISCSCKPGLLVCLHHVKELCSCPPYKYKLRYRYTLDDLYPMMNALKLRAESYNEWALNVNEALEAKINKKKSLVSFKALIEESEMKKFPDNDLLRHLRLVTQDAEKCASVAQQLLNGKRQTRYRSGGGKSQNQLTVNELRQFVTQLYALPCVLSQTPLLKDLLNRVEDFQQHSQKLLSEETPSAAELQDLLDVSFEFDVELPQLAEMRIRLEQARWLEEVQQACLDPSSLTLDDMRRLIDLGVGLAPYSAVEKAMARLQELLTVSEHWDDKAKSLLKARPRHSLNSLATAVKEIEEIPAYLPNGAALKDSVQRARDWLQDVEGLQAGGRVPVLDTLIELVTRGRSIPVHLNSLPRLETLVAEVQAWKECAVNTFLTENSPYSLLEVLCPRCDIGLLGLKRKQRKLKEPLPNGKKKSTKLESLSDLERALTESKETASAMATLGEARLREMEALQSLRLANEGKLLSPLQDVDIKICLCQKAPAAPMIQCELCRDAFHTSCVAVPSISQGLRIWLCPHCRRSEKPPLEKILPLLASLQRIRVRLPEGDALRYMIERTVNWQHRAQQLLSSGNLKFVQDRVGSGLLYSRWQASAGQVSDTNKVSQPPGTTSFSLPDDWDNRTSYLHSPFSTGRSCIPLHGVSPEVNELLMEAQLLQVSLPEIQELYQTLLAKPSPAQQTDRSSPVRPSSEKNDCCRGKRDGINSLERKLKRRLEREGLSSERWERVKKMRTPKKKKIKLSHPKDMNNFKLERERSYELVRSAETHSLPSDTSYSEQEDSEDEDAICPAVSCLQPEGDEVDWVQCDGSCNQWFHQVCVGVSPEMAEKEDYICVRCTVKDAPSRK
In short: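 Coupled FDH/NAD⁺ fluorescence readout. KDM5BΔAP 200 nM final; compound titration, 10 min RT preincubation; substrate mix 12.5 µM H3K4me3, 25 µM 2-OG, 50 µM Fe(II), 100 µM ascorbate, 0.25 mM NAD⁺, 0.25 U/mL FDH; ΔRFU over 30 min.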
Nc1nccnc1C(=O)NCCc1ccccc1C(F)(F)F was tested, and the Potency was inconclusive: 22.4 µM [inhibitor, partial curve, poor fit].
CO[C@H]1[C@H](NC(=O)c2c(F)cccc2Cl)c2ccccc2C12CCNCC2 was tested, and the Potency was “inactive”.
With CCCN(C)C(=O)CC1COc2ccc(C(=O)NCCOC)cc2N1C (configuration not stated) the Potency was active: 31.6 µM.
In the case of CCN1c2cc(C(=O)Nc3cccc(C#N)c3)ccc2C(=O)N2CCCCCC21 (configuration not stated), the Potency is reported as inconclusive: 28.2 µM [inhibitor, partial curve, poor fit].
With COc1ccc(-c2cc(-c3cccc(NC(C)=O)c3)cn3cncc23)cc1 the Potency was active: 8.91 µM.
In the case of CC(=O)c1sc(Nc2cccc3ccccc23)nc1C, the Potency is reported as inconclusive: 39.8 µM [inhibitor, single point].
With Cc1ccc(NC(=O)Nc2ccccc2Sc2nc3c(c(=O)n(C)c(=O)n3C)n2C)cc1C the Potency was “inactive”.
COC(=O)[C@@H]1Cc2ncn(C)c2CN1S(=O)(=O)c1ccc(OC)cc1 was tested, and the Potency was inconclusive: 35.5 µM [inhibitor, single point].
CCc1nnsc1C(=O)N(C)CCOc1cc(C)cc(C)c1 was tested, and the Potency was “inactive”.
O=C(CCCc1ccccc1)NCc1nnc2cc(-c3nc(C4CC4)no3)ccn12 was tested, and the Potency was active: 28.2 µM.
With COP(=O)(OC)c1nc(-c2cccs2)oc1NCc1ccccc1 the Potency was inconclusive: 28.2 µM [inhibitor, partial curve, poor fit].
For COc1ccc(N2CCN(CC(O)COc3cc(C)cc(C)c3)CC2)cc1 (configuration not stated), the Potency was “inactive”.
With CCOc1ccc(-c2nonc2NC(=O)c2ccco2)cc1OCC the Potency was inconclusive: 35.5 µM [inhibitor, single point].
For CCCc1ccc2oc(C(=O)N(C)Cc3snnc3C)c(C)c2c1, the Potency was “inactive”.
COc1ccc(/C(=N/OC(=O)c2ccc(Cl)cc2)c2nccc3cc(OC)c(OC)cc23)cc1OC was tested, and the Potency was inconclusive: 39.8 µM [inhibitor, single point].
For O=C(NCCc1ccccn1)c1ccc2nccn2c1, the Potency was inconclusive: 39.8 µM [inhibitor, partial curve, poor fit].
In the case of CCCCn1nc(C(=O)Nc2ccc3c(c2)CCC3)c2ccccc2c1=O, the Potency is reported as “inactive”.
With Cc1cc2c(-c3ccccc3F)nc(-c3c(C)noc3C)cc2[nH]1 the Potency was active: 35.5 µM.
COc1ccc(CNC(=O)c2ccc(Cn3ccn4nc5c(c4c3=O)CCCC5)cc2)cc1OC was tested, and the Potency was inconclusive: 31.6 µM [inhibitor, single point].
With COc1cc(/C=C(/C#N)C(=O)OC(C)C)cc(Cl)c1O the Potency was inconclusive: 15.8 µM [inhibitor, partial curve, poor fit].
For CCCCN(CC)CCCNC(=O)c1cc2c(=O)oc3ccc(C)cc3c2s1, the Potency was inconclusive: 14.1 µM [inhibitor, partial curve, poor fit].
For Cc1cn2nc(C(=O)Nc3ccc4c(c3)OCO4)cc2c(N(C)Cc2ccccc2)n1, the Potency was inconclusive: 3.16 µM [inhibitor, partial curve].
Cc1ccc(CN2CCOCCNC(=O)[C@H]3CCCC[C@H]32)o1 was tested, and the Potency was inconclusive: 14.1 µM [inhibitor, single point].
For COc1ccc(-c2cc3c(ccn3C)c(C(=O)NCCC(N)=O)n2)cc1OC, the Potency was active: 35.5 µM.
In the case of CC(Cn1cncn1)Nc1nc(-c2ccncc2)nc2c1cnn2C (configuration not stated), the Potency is reported as inconclusive: 31.6 µM [inhibitor, partial curve, poor fit].
With Cc1cccc(CN2CCC3(CC2)COCCN3C(=O)OCc2ccccc2)c1 the Potency was “inactive”.
In the case of c1coc(-c2nc(-c3ccc4c(c3)OCCCO4)cs2)c1, the Potency is reported as inconclusive: 39.8 µM [inhibitor, partial curve, poor fit].
O=C(Cn1c(=O)n(Cc2ccccc2)c(=O)c2sc3ccccc3c21)Nc1ccc(F)cc1 was tested, and the Potency was inconclusive: 5.01 µM [inhibitor, full curve, poor fit].
Nc1ccccc1OC1CCCCC1 was tested, and the Potency was “inactive”.
In the case of COc1ccc(CNC(=O)C2CC(=O)N(c3n[nH]c4cccc(F)c34)C2)cc1OC (configuration not stated), the Potency is reported as inconclusive: 35.5 µM [inhibitor, single point].
Cc1ccc2oc(=O)cc(CN(Cc3ccccc3)Cc3ccco3)c2c1 was tested, and the Potency was “inactive”.
With CCCCNc1ncc(C(=O)O)c(CC)n1 the Potency was inconclusive: 31.6 µM [inhibitor, partial curve, poor fit].
In the case of CCOc1ccc(S(=O)(=O)NCc2nc3cccnc3n2Cc2ccccc2OC)cc1, the Potency is reported as inconclusive: 25.1 µM [inhibitor, single point].
With CCN(C(=O)CN(C)C(c1cccc(F)c1)c1ccccn1)C1CC1 (configuration not stated) the Potency was “inactive”.
In the case of CCOC(=O)C1CCN(C(=O)c2ccc3c(c2)sc2nc(-c4ccc(OC)cc4)cn23)CC1, the Potency is reported as inconclusive: 35.5 µM [inhibitor, partial curve, poor fit].
COc1cc2oc(=O)c(CC(=O)N3CCC(O)(c4ccc(Cl)cc4)CC3)c(C)c2cc1OC was tested, and the Potency was inconclusive: 2 µM [inhibitor, full curve, poor fit].
CCCCNC(=O)CSc1nc2n[nH]c(C)c2c(=N)n1-c1cccc(C)c1 was tested, and the Potency was inconclusive: 31.6 µM [inhibitor, single point].
With COC(=O)c1cccc(NC(=O)NCC2CCN(CCc3ccc(F)cc3)CC2)c1 the Potency was “inactive”.
In the case of O=C(CCC1CCCN(S(=O)(=O)c2ccccc2F)C1)NCc1cc(F)ccc1F (configuration not stated), the Potency is reported as inconclusive: 28.2 µM [inhibitor, partial curve, poor fit].
With O=C(O)c1ccnc(-c2ccnc(NCc3noc(C4CCCC4)n3)n2)c1 the Potency was inconclusive: 17.8 µM [inhibitor, partial curve, poor fit].
O=C(CSc1nnc(NC(=O)c2ccccc2)s1)NCc1ccco1 was tested, and the Potency was inconclusive: 39.8 µM [inhibitor, single point].
COC(=O)c1cc(S(=O)(=O)N2CCCCC2)ccc1N1CCOCC1 was tested, and the Potency was “inactive”.
O=C(Cc1cccc(Cl)c1)N1CCNc2cnc(Nc3cccc(C(F)(F)F)c3)nc2C1 was tested, and the Potency was inconclusive: 8.91 µM [inhibitor, full curve, poor fit].
Cc1ccc(-c2cc3nccc(-c4cc([N+](=O)[O-])ccc4O)n3n2)cc1 was tested, and the activity change, negative = inhibition was inconclusive: -32.4% [inhibitor].
In the case of O=C(O)CN1CCN(Cc2ccc(OCCc3ccccc3)cc2)CC1=O, the Potency is reported as active: 25.1 µM.
With CCc1ccccc1NC(=O)C1CCCN(c2ncccn2)C1 (configuration not stated) the Potency was inconclusive: 28.2 µM [inhibitor, single point].
In the case of O=C(Nc1ccc(F)cc1F)Nc1ncc(Cl)cc1Cl, the Potency is reported as “inactive”.
COC(=O)[C@@H]1Cc2c([nH]c3ccccc23)[C@H]2C[C@@H](NCc3cccnc3)C[C@@H](c3ccc(OC(F)(F)F)cc3)N21 was tested, and the Potency was inconclusive: 17.8 µM [inhibitor, partial curve].
In the case of CCOC(=O)CCCCN(Cc1ccccc1F)S(=O)(=O)c1ccc(F)c(C(=O)Nc2cc(Cl)cc(Cl)c2)c1, the Potency is reported as inconclusive: 35.5 µM [inhibitor, single point].
For CC(CCc1ccccc1)NC(=O)c1nccnc1N (configuration not stated), the Potency was inconclusive: 22.4 µM [inhibitor, partial curve, poor fit].
With CCOc1ccc(NC(=O)Nc2cc3c(cc2N2CCCCC2)n(C)c(=O)n3C)cc1 the Potency was inconclusive: 7.08 µM [inhibitor, partial curve, poor fit].
With Cc1ccc(S(=O)(=O)Oc2c(C)occc2=O)cc1 the Potency was “inactive”.
For CC(=O)NC(C)c1nc2ccccc2n1Cc1ccccc1Cl (configuration not stated), the Potency was “inactive”.
For CC(C)Oc1cccc(-c2cccc(COc3ccc4c(cnn4CC[S+](C)(=O)[O-])c3)c2)c1, the Potency was inconclusive: 28.2 µM [inhibitor, single point].
With Cc1ccc(C)c(NC(=O)C2CCCN2S(=O)(=O)c2ccc3c(c2)n(C)c(=O)c(=O)n3C)c1 (configuration not stated) the Potency was inconclusive: 31.6 µM [inhibitor, partial curve, poor fit].
CC(=O)N1CCC(N2CC3CC(C2)[C@H]2CCCC(=O)N2C3)CC1 (some centres not stated) was tested, and the Potency was inconclusive: 15.8 µM [inhibitor, single point].
In the case of CCOCCCNC(=O)c1ccc(Cn2c(=O)c3cccn3c3cccnc32)cc1, the Potency is reported as inconclusive: 22.4 µM [inhibitor, single point].
With CCn1cc(-c2ccc(Cl)cc2)cc1C(=O)NCCOC the Potency was “inactive”.
For O=C1Nc2ccc(Br)cc2C(=O)N2CCN(C(=O)c3cccc(F)c3)C[C@H]12, the Potency was inconclusive: 15.8 µM [inhibitor, partial curve, poor fit].
With Fc1ccc(N=Cc2ccc(C=Nc3ccc(F)cc3F)cc2)c(F)c1 the Potency was inconclusive: 31.6 µM [inhibitor, single point].
In the case of Cc1cn2nc(C(=O)Nc3ccc(N(C)C)cc3)cc2c(N(C)Cc2ccccc2)n1, the Potency is reported as inconclusive: 31.6 µM [inhibitor, partial curve, poor fit].
For Cc1ccc2nc(-c3ccc(NC(=O)COc4ccccc4C(C)(C)C)cc3)sc2c1, the Potency was inconclusive: 31.6 µM [inhibitor, partial curve, poor fit].
With COC[C@@H]1CN(C(=O)c2ccc(OC)nc2)C[C@H]1C(N)=O the Potency was “inactive”.
COP(=O)(OC)c1nc(-c2cccc([N+](=O)[O-])c2)oc1NCc1ccc(C)cc1 was tested, and the Potency was “inactive”.
C=CCc1cccc2cc(-c3nc4ccc(C(=O)O)cc4[nH]3)c(=O)oc12 was tested, and the Potency was inconclusive: 3.16 µM [inhibitor, full curve, poor fit].
With Cc1nnc([C@@H]2CC(F)(F)CN2C(=O)COc2ccc(F)cc2)o1 the Potency was “inactive”.
Cc1ncsc1C(=O)/C=C/c1ccc(F)c(F)c1 was tested, and the Potency was inconclusive: 17.8 µM [inhibitor, partial curve, poor fit].

— PubChem BioAssay AID1347165 (National Center for Advancing Translational Sciences (NCATS), 2019)
Note: nearly all actives have a fitted effect of over 70% in size.
Potency is the fitted concentration of half-maximal effect; tags give direction and shape of the fitted curve.
Throughout, for activity change, negative = inhibition: 0% is about no effect.
